This is one part of the list.
The sequences below were run on PfHDP1 homeodomain (GST-tagged) (assay: gcPBM binding intensity (ln(normalized median fluorescence intensity)); higher = stronger DNA binding).
Outline: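 The highest Masliner-normalised natural-log median intensity across replicate spots of either probe orientation is reported as binding intensity. GST-tagged P. falciparum DNA-binding domains expressed in E. coli were applied for 1 h to an Agilent 4 × 180k array of primer-extended double-stranded 36-bp intergenic genomic probes plus negative controls, and bound protein was detected with Alexa488 anti-GST antibody and scanned at 488 nm.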

Sequence	gcPBM binding intensity (ln)
TTTTTAATTCAAAAAATAATATATTATATTTCAAAT [CACACA_negctrl_site737]	6.11
TATTTTTCTTTTTTCTGTACTCACACAAATAGAAGG [XGTACX_site7329]	6.37
TTTTTACGTAAACAAAATAATTATATAATATTATTT [CACACA_negctrl_site1769]	6.34
TAAACAAATAAATAAACACACAATATATGTATATAT [CACACA_site3803]	6.4
CGTAAATTTTTTAAAAGTACAAAAAGATACGAGAAA [XGTACX_site8722]	6.46
ATAGGACCTATGTGCCCATGGGTACATTAAAAAAAA [CACACA_negctrl_site1465]	6.1
AAAAAACTTATAATCACACATATGATTAAATATTAA [CACACA_site4956]	6.16
AAAAAAAAAAAAAAAATACACACGTGAATGTATTGT [CACACA_site1320]	6.69
AAATAACACATATATACACACATATAAATATAATAT [CACACA_site2692]	6.74
TTTGTTTTAAATCGAAGTACACATAATTATATTTTA [XGTACX_site1541]	6.33
AATTATTTTTTGTATGAACACACAACTTAATTATGA [CACACA_site8774]	6.37
TTGAATGTAGTTAAATGTACATGTAATATATAAAAA [XGTACX_site1250]	6.95
ATACAACATATATATACACACATATAATAATAATAA [CACACA_site3367]	6.85
GAATAAAAAATATATGTGCACATATAAACTTAAAAT [GTGCAC_site9554]	10.7
TAATATAAAGGAAAAGAAAAGAAAAGAATATACAAT [CACACA_negctrl_site1369]	6.37
AAACCAATAAAAAACTGTACAAAAATTATATGAGAT [XGTACX_site1269]	6.8
ACTACCTATATTTAAGCATGCAAAAAATAAAAATAT [TGCATGCA_site238]	7.08
ATAAATTGTTCTTTTTGTGTAAACAGAATATTAAAA [CACACA_negctrl_site1022]	6.12
TATATATATACATAATGTACATTTTATAAATTTACA [XGTACX_site5283]	7.47
ATATTTTAAATGTTATGTACACATTTGTTGTTTACA [XGTACX_site7353]	6.92
AATATTATTATTATTACACACACAATTATATTTACC [CACACA_site8061]	6.61
TTAATTTGTTCTTACACACACATATATATATATTTA [CACACA_site1185]	6.82

Sequence	gcPBM binding intensity (ln)
ATTTTTTTTTTTATTTTCTTTGAGATTATCTTAATT [CACACA_negctrl_site1209]	6.36
TCCTTTTTTAAAAGTTGTACATTATTGTTATTTGTT [XGTACX_site4686]	6.41
ATACAATAAAATAAGTTTGAATAAAATTAAATATAT [CACACA_negctrl_site877]	6.29
GAAGGAAATAATAGTAGTACAAATGGTAAGAAATAT [XGTACX_site5845]	7.26
TTCCTCTTAATATGTGCACACTAAATTATAACCTAA [CACACA_site5751]	11.3
TATATAAATGTTATCACACACTCACGTTTGACAAAA [CACACA_site6468]	6.36
TTTACAATATAAAATACACACACACTAACATATATT [CACACA_site9231]	7.02
TTTACAATATTAAAATGTACATATAAAATAAATAAA [XGTACX_site8367]	6.61
TTTCCCAAGCTTATTACACACAAGTAGAATAAGCTT [CACACA_site1561]	6.27
TATATAGGTAAAAAATGTACTTATATTGAATATATT [XGTACX_site4414]	5.97
GATATCAAATATAAATGTACAAATTATATATACATA [XGTACX_site3228]	6.09
TTCTTATTTATTTTCTTCTCCTTCCTCAAATTTTTT [GTGCAC_negctrl_site592]	6.63
AATTTGTTAATATTTTGTACACATAATATAAAAACA [XGTACX_site2224]	6.48
GAGAAAGATATATACACACACATAAATATGTACATA [CACACA_site6975]	6.59
GGTAATTATTTTGGTTGTACTCAAATATATAATATT [XGTACX_site291]	6.71
AAACATAAAGAAAAAAAAAATATATATTTATTTATT [GTGCAC_negctrl_site357]	6.33
TATATGTTATATTGGACACACACAATAAACATTATG [CACACA_site8480]	6.44
ATAAAAATGGTGTTAACACACACATATATATATATA [CACACA_site8089]	9.28
TTATTTAAATATTGATGTACTCTCCTTATTATAATA [XGTACX_site1240]	6.76
ATATATTAACAAAAGGTGCTTTTGGCAAAGTATAAT	6.65
ATTATATTTATGTTGGTGCATTATACATGAAATTTA	10.5
AATATAATACAATATTGTACATAATATAAATTAAAA [XGTACX_site4064]	6.58
